Laboratory results published in PubChem BioAssay AID1460 (National Center for Advancing Translational Sciences (NCATS), 2008).
The whole screen tested about 270,000 compounds, of which about 5,800 (2.1%) were called active. This list was built around the results that the source calls inconclusive (neither active nor inactive); the mix of calls is not that of the screen. Calls come from the whole dose curve; as a rule, active = well fitted inhibition curve with a large enough effect; inconclusive = small, poorly fitted or top-dose-only effect; inactive = flat fitted curve, though single readings scatter. Potencies beside an inconclusive call are fits to weak or partial responses and may not hold up.

Target: Microtubule-associated protein tau (Homo sapiens) (UniProt P10636)
Experiment: qHTS for Inhibitors of Tau Fibril Formation, Thioflavin T Binding; note: nearly all actives have a fitted effect of over 55% in size
Conditions: recombinant tau K18 P301L (four-repeat tau fragment), heparin-induced fibrillization, ThT fluorescence; series mostly up to 57.4 µM
How it was run: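 In this qHTS, human K18 P301L tau is incubated with compound and heparin for 6 hr at 37 C, and Thioflavin T fluorescence then reports fibril load.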
Potency is the fitted concentration of half-maximal effect; tags give direction and shape of the fitted curve.

Chain of UniProt P10636 (P10636 whole entry, looked up): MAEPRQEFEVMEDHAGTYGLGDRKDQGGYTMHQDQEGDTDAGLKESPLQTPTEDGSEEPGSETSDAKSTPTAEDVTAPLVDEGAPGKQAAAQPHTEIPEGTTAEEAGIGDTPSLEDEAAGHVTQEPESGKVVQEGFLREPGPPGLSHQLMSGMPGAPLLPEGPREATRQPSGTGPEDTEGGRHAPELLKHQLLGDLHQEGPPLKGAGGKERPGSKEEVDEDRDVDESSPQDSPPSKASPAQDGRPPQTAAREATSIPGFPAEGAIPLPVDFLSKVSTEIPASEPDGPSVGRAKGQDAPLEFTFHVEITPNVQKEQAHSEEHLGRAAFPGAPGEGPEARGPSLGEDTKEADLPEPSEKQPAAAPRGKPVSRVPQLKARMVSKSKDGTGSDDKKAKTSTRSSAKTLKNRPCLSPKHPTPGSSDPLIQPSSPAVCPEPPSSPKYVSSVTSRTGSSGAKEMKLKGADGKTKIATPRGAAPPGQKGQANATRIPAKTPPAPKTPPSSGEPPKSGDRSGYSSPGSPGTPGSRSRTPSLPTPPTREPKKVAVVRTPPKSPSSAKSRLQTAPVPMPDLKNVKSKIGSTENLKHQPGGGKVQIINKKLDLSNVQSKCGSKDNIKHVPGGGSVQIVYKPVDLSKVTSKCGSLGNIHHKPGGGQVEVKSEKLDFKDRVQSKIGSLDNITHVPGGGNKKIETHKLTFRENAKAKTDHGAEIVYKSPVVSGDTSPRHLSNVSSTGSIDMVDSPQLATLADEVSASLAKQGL

SMILES	Potency
NC(=S)Nc1cccc2cnccc12	inactive
CCN(CC)c1ccc(-c2nn3c(-c4cccnc4)nnc3s2)cc1	inconclusive: 17.8 µM [inhibitor, partial curve]
Cc1[nH]c(C(=O)N/N=C/c2ccc(N(C)C)cc2)c(C)c1C(=O)N/N=C/c1ccc(N(C)C)cc1	active: 2.24 µM
CCn1nc(CC(=O)Nc2nnc(CC(=O)N3CCCCC3)s2)c2ccccc2c1=O	inactive
FC(F)(F)c1ccccc1NC(=S)N1CCc2ccccc2C1	inactive
COc1ccc(N2C(=O)/C(=C\c3ccco3)N=C2SCC(=O)NC(C)C)cc1Cl	inconclusive: 17.8 µM [inhibitor, partial curve]
COC(=O)C1=C(C)N(c2ccc(OC)c(OC)c2)C(=O)/C1=C\c1cccs1	inconclusive: 12.6 µM [inhibitor, partial curve]
Cc1ccc(CNC(=O)c2cn(C3CCCC3)c(=O)c3c2c2ccccc2n3C)o1	inconclusive: 20 µM [inhibitor, single point]
CCOC(=O)c1c(CSc2ccccc2)oc2ccc(O)cc12	inconclusive: 39.8 µM [inhibitor, single point]
CCCS(=O)(=O)c1ncc(Cl)c(C(=O)Nc2c(C(=O)c3ccccc3)oc3ccccc23)n1	inconclusive: 5.62 µM [inhibitor, partial curve]
CCCCCn1c(NCc2ccccc2OC)nc2ccccc21	inconclusive: 22.4 µM [inhibitor, partial curve, poor fit]
CCc1cc2c(cc3c(=O)n(CC(=O)N4CCC(C)CC4)nc(CC)n32)s1	inconclusive: 22.4 µM [inhibitor, single point]
CC(C)CCn1c2ccccc2c2cc(CC(N)=O)ccc21	inconclusive: 8.91 µM [inhibitor, full curve, poor fit]
NC(=O)CC(NC(=O)Cc1cccc2ccccc12)c1ccc(NC2CCC2)c([N+](=O)[O-])c1 (configuration not stated)	inconclusive: 10 µM [inhibitor, partial curve]
COC(=O)c1ccc(C(=O)NC(=S)Nc2nc3c(s2)CC(C)CC3)cc1 (configuration not stated)	inconclusive: 7.08 µM [inhibitor, single point]
CCOC(=O)Cn1ccc(-c2ccccc2)c(C#N)c1=O	inactive
CCC(=O)N1CCc2cc(Br)cc(S(=O)(=O)N3CCCC(C(=O)NCc4cccc(OC)c4)C3)c21 (configuration not stated)	inconclusive: 0.1 µM [inhibitor, full curve, poor fit]
Cc1nc2c(-c3ccccc3)c(C)nn2c(C)c1CCC(=O)N1CCN(c2ccccc2)CC1	inconclusive: 20 µM [inhibitor, single point]
Cc1ccc(C(=O)COC(=O)c2ccc(O)cc2)cc1	inconclusive: 17.8 µM [inhibitor, partial curve]
COCc1ccc(CN2CCc3c([nH]c4ccccc34)C2CC(C)C)o1 (configuration not stated)	inconclusive: 28.2 µM [inhibitor, single point]
Nc1c(C(=O)Nc2ccc(Cl)c(C(F)(F)F)c2)sc2nc(-c3ccncc3)ccc12	inconclusive: 3.98 µM [inhibitor, full curve]
CCOC(=O)c1cccc(C(=O)Nc2nc3ccc(OC)cc3s2)n1	inconclusive: 3.16 µM [inhibitor, full curve]
Cc1ccc2oc(-c3ccccc3)c(C(=O)O)c(=O)c2c1	inconclusive: 31.6 µM [inhibitor, single point]

SMILES	Potency
CCCCCC[N+](C)(C)CC/C=C1/c2ccccc2Sc2ccc(Cl)cc21	inconclusive: 15.8 µM [inhibitor, partial curve, poor fit]
Oc1ccc(-c2nc3ncccn3c2Nc2ccc3c(c2)OCCO3)cc1	inconclusive: 20 µM [inhibitor, partial curve]
Cc1cccc(NC(=O)CN2C(=O)S/C(=C\c3ccc(-c4cccc(C(=O)O)c4C)o3)C2=O)c1	inconclusive: 11.2 µM [inhibitor, partial curve]
O=c1cc(-c2ccc(F)cc2)[nH][nH]1	inconclusive: 0.794 µM [inhibitor, full curve]
O=C(CSc1nnc(-c2ccccc2O)o1)N1CCc2ccccc2C1	inactive
COc1cc(SC)ccc1C(=O)Nc1ncc(Cl)cc1Cl	inconclusive: 2.82 µM [inhibitor, partial curve]
COc1ccc(Cn2cc(C(=O)c3ccc(OC)cc3)c(=O)c3cc4c(cc32)OCCO4)cc1	inactive
Cc1c2cnn(-c3ccccc3)c(=O)c2c(C)n1CC(=O)NCc1ccccc1Br	inactive
Fc1ccc(-c2nnc3ccc(N4CCc5ccccc5C4)nn23)cc1	inconclusive: 22.4 µM [inhibitor, partial curve]
COC(=O)C(N)Cc1ccc(O)c(O)c1 (configuration not stated)	inconclusive: 31.6 µM [inhibitor, partial curve]
COc1ccc(S(=O)(=O)N(C(=O)c2ccncc2)c2ccc3oc4c(c3c2)CCCC4)cc1	inconclusive: 14.1 µM [inhibitor, partial curve, poor fit]
O=C(Nc1nnc(S(=O)(=O)N2CCOCC2)s1)c1cccc(F)c1	inconclusive: 5.62 µM [inhibitor, partial curve]
CCS(=O)(=O)N1CCc2cc(C(=O)Nc3ccc(C)c(Cl)c3)ccc21	inactive
Cn1c(=O)c(N)c2c3c(c(Br)ccc31)C(=O)c1ccccc1-2	active: 14.1 µM
C=CCNc1nc(-c2cc3ccccc3o2)cs1	inconclusive: 14.1 µM [inhibitor, partial curve]
Cc1ccc2nc(SCC(=O)c3ccc(O)cc3O)[nH]c2c1	inconclusive: 10 µM [inhibitor, partial curve, poor fit]
CC(=O)Nc1ccc2nc(NC(=O)COc3ccc([N+](=O)[O-])cc3)sc2c1	inconclusive: 0.398 µM [inhibitor, full curve]
O=C(NC(=S)N1CCCc2ccccc21)c1ccccc1	inconclusive: 25.1 µM [inhibitor, single point]
COc1ccc(Br)cc1CNC(=O)Nc1cccs1	inconclusive: 28.2 µM [inhibitor, partial curve]
CCc1ccc2[nH]c(=O)c(CN(Cc3nnnn3C3CCCC3)C3CCCCC3)cc2c1	inconclusive: 22.4 µM [inhibitor, single point]
Cc1cccc(NC(=O)/C(C#N)=C\c2cn(CC(=O)O)c3ccccc23)c1	inactive
O=S(=O)(/C(=C/c1ccc(C(F)(F)F)cc1)c1nc2ccccc2[nH]1)c1ccccc1	active: 28.2 µM
COc1cc(-c2nc3sccn3c2Nc2cccc(C)c2)ccc1O	inconclusive: 12.6 µM [inhibitor, partial curve]

SMILES	Potency
Cc1nc(-c2ccc(Cl)cc2)sc1CCNC(=O)c1ccco1	inconclusive: 1.26 µM [inhibitor, full curve]
CC(C)/C(=N/Nc1ccccc1[N+](=O)[O-])c1ccccc1	inconclusive: 15.8 µM [inhibitor, partial curve]
NC(=O)CC(NC(=O)c1ccc(Br)cc1)c1ccc(NCc2ccc(F)c(F)c2)c([N+](=O)[O-])c1 (configuration not stated)	inconclusive: 12.6 µM [inhibitor, partial curve]
COc1ccccc1CNc1ccc([N+](=O)[O-])cc1C	inconclusive: 15.8 µM [inhibitor, partial curve]
COc1ccc(N2CCN(CCOc3ccc4c(C)cc(=O)oc4c3)CC2)cc1	inconclusive: 4.47 µM [inhibitor, partial curve]
CCOC(=O)C(=Cc1ccc(OCc2ccc([N+](=O)[O-])cc2)c(OC)c1)C(=O)OCC	inconclusive: 10 µM [inhibitor, partial curve]
CCOc1ccc(CNC(=O)CCn2nc(C)c3c(C)n(-c4ccccc4)nc3c2=O)cc1	inactive
Cc1ccc(C)c(N2CCN(C(=O)CCCn3ncn4c(cc5occc54)c3=O)CC2)c1	inconclusive: 10 µM [inhibitor, partial curve]
O=c1c(-c2cc(O)c(O)c(O)c2)coc2cc(O)c(O)c(O)c12	active: 3.55 µM
COc1c(Cl)cc(Cl)cc1/C=C(\C#N)c1nc2ccccc2[nH]1	inactive
COc1ccc2nc(N3CCCC3)[nH]c2c1	inactive
Cc1cc(=O)n2nc(N3CCC(C(=O)Nc4ccc(C(C)C)cc4)CC3)sc2n1	inconclusive: 0.794 µM [inhibitor, full curve, poor fit]
O=[N+]([O-])c1ccccc1/C=N/NC1=NS(=O)(=O)c2ccccc21	inactive
Oc1ccc(/C=N/NC(=S)Nc2cccnc2)cc1O	inconclusive: 12.6 µM [inhibitor, partial curve]
COC(=O)c1cc2ccccc2oc1=O	inactive
Oc1csc(Cc2nc(-c3ccc(-c4ccccc4)cc3)cs2)n1	inconclusive: 7.08 µM [inhibitor, partial curve]
Cc1cc2cc3c(N)[nH]nc3nc2cc1C	inconclusive: 12.6 µM [inhibitor, partial curve]
CN1C(=O)C2C(c3ccc(N(C)C)cc3)NN(Cc3ccccc3)C2C1=O (configuration not stated)	inconclusive: 31.6 µM [inhibitor, single point]
C/C(=N\Nc1nc2ccccc2s1)c1ccc2c(c1)OCO2	inconclusive: 3.16 µM [inhibitor, full curve]
Cc1occc1-c1nnc(SCC(=O)NCc2ccco2)n1CC(C)C	inconclusive: 25.1 µM [inhibitor, single point]
O=C(Nc1cn(-c2ccccc2)nc1-c1cccs1)c1ccco1	inconclusive: 20 µM [inhibitor, partial curve]
